The source of these data is a collection of fitness landscapes (doi:10.1126/science.1257360).

B1: PhoQ; a variant is named by its letters at X, in order, P23837 (parent)
chain: MKKLLRLFFPLSLRVRFLLATAAVVLVLSLAYGMVALIGYSVSFDKTTFRLLRGESNLFYTLAKWENNKLHVELPENIDKQSPTMTLIYDENGQLLWAQRDVPWLMKMIQPDWLKSNGFHEIEADVNDTSLLLSGDHSIQQQLQEVREDDDDAEMTHSVAVNVYPATSRMPKLTIVVVDTIPVELKSSYMVWSWFIYVLSANLLLVIPLLWVAAWWSLRPIEALAKEVRELEEHNRELLNPATTRELTSLVRNLNRLLKSERERYDKYRTTLTDLTHSLKTPLXXLQXXLRSLRSEKMSVSDAEPVMLEQISRISQQIGYYLHRASMRGGTLLSRELHPVAPLLDNLTSALNKVYQRKGVNISLDISPEISFVGEQNDFVEVMGNVLDNACKYCLEFVEISARQTDEHLYIVVEDDGPGIPLSKREVIFDRGQRVDTLRPGQGVGLAVAREITEQYEGKIVAGESMLGGARMEVIFGRQHSAPKDE

The list shows a part of the results. Some results are limits rather than exact numbers.

In this assay the parent is B1. Put plainly: enrichment ratio after two sorts for PhoP signalling (ratio (wild type AVST 3.29)); higher = more functional. The settings on record: with PhoP (E. coli).
For THRI, the enrichment ratio is no more than 0.25. Regarding KYTN, the enrichment ratio is no more than 0.25. On to VFKT, for which the enrichment ratio was no more than 0.25.

DCPQ: the enrichment ratio was no more than 0.25. Regarding HKWI, the enrichment ratio is no more than 0.25. Under KTAA stands no more than 0.25; under PHTF, no more than 0.25; under GMHG, no more than 0.25. The value for ESHE was no more than 0.25. The value for FCKI was no more than 0.25; that for SGWH was no more than 0.25. As for NWLG, the enrichment ratio was no more than 0.25. The value for LQNK was no more than 0.25; that for RTYF was no more than 0.25.

Consider EFYS, for which the enrichment ratio was no more than 0.25. In the case of IDYA, the enrichment ratio was no more than 0.25. The value for DSKG was no more than 0.25; that for VHVY was no more than 0.25; that for QHKE was no more than 0.25. Take GNFW: the enrichment ratio is no more than 0.25. Take GAFR: the enrichment ratio was no more than 0.25.

Turning to AKRL, the enrichment ratio is no more than 0.25.

As for CPSL, the enrichment ratio was no more than 0.25. In the case of IYIN, the enrichment ratio was no more than 0.25. The value for SFEH was no more than 0.25; that for MPLY was no more than 0.25; that for WSTY was no more than 0.25. Under GALG stands 3.78; under MDRN, no more than 0.25; under TACS, 14.1.

As to HNTN, the enrichment ratio was no more than 0.25.

With VIYQ, the enrichment ratio is no more than 0.25. Under QGFA stands 1.27; under EFLW, no more than 0.25. The value for LFDG was no more than 0.25.

As to FMLD, the enrichment ratio is no more than 0.25. Turning to YLFD, the enrichment ratio is no more than 0.25.

On to MVGR, for which the enrichment ratio is no more than 0.25.

Turning to SERW, the enrichment ratio is no more than 0.25. The value for FMYV was no more than 0.25; that for EKWC was no more than 0.25. The value for HIWP was no more than 0.25. The value for PITP was no more than 0.25. Consider MYAA, for which the enrichment ratio was no more than 0.25.

Take YSTV: the enrichment ratio was 4.67. Under MIRR stands no more than 0.25; under LVDV, no more than 0.25; under VERC, no more than 0.25.

Regarding HCPL, the enrichment ratio is no more than 0.25.

For WMRR, the enrichment ratio is no more than 0.25. The value for PHRM was no more than 0.25; that for FMWK was no more than 0.25. Consider RIIR, for which the enrichment ratio is no more than 0.25. Turning to KHLD, the enrichment ratio is 2.17. The value for GHHQ was no more than 0.25.

For VNFV, the enrichment ratio was no more than 0.25. For WGYM, the enrichment ratio was no more than 0.25. Under MEQD stands no more than 0.25; under PEFD, no more than 0.25. For LELR, the enrichment ratio was no more than 0.25.

DNIL: the enrichment ratio was no more than 0.25. Under FNSE stands no more than 0.25; under RARH, no more than 0.25; under ERWI, no more than 0.25.

Consider YGTA, for which the enrichment ratio was no more than 0.25. As for VYYN, the enrichment ratio is no more than 0.25. The value for WEVR was no more than 0.25; that for FCKC was no more than 0.25; that for WVYC was no more than 0.25.

As to PFKA, the enrichment ratio was no more than 0.25. The value for GFFV was no more than 0.25. Under YGMW stands no more than 0.25. For the variant TWHH, the enrichment ratio was no more than 0.25.

For ALRC, the enrichment ratio was no more than 0.25. Consider NFER, for which the enrichment ratio was no more than 0.25.

Consider EAAA, for which the enrichment ratio was no more than 0.25. Regarding LHMG, the enrichment ratio was no more than 0.25. In the case of ANCG, the enrichment ratio worked out at 26.6. The value for VYLA was no more than 0.25. Consider IWLF, for which the enrichment ratio was no more than 0.25. Under LLMR stands no more than 0.25. As to FWIT, the enrichment ratio was no more than 0.25. The value for ETPN was no more than 0.25. As to ALTG, the enrichment ratio came to 3.18.

For the variant GCDD, the enrichment ratio is no more than 0.25.

In the case of FFPT, the enrichment ratio is no more than 0.25.

For the variant SWKS, the enrichment ratio is no more than 0.25.

With LDPW, the enrichment ratio was no more than 0.25.

In the case of FVIF, the enrichment ratio was no more than 0.25. TYFD: the enrichment ratio is no more than 0.25. The value for DQHR was no more than 0.25. Under GLAY stands no more than 0.25. Under ISSI stands no more than 0.25; under GWSS, no more than 0.25; under IQCF, no more than 0.25. Consider EGMS, for which the enrichment ratio is no more than 0.25. Under DSWE stands no more than 0.25. The value for FYHQ was no more than 0.25; that for VVKH was no more than 0.25.

In the case of LEER, the enrichment ratio was no more than 0.25. Under LHDS stands no more than 0.25. Under ITMW stands no more than 0.25; under MNAD, no more than 0.25; under MPWT, no more than 0.25. The value for PHDW was no more than 0.25; that for SAFN was no more than 0.25. As to NMDA, the enrichment ratio is no more than 0.25. Turning to SPWR, the enrichment ratio is no more than 0.25.

Consider SMSP, for which the enrichment ratio was no more than 0.25. As for KMFT, the enrichment ratio is no more than 0.25. The value for MCIA was no more than 0.25; that for DNAT was no more than 0.25. On to MYKY, for which the enrichment ratio was no more than 0.25.

Consider MSMG, for which the enrichment ratio was 2.86. Under DGTH stands no more than 0.25; under FKNP, no more than 0.25. With GKVY, the enrichment ratio is no more than 0.25.

TVFF: the enrichment ratio came out at 1.69. The value for KYKN was no more than 0.25. Take TYYG: the enrichment ratio was no more than 0.25. FYHH: the enrichment ratio was no more than 0.25. Consider SENS, for which the enrichment ratio stood at 3.56. Under ARAN stands no more than 0.25. Under IHAD stands no more than 0.25; under AKNL, no more than 0.25. On to FRYW, for which the enrichment ratio is no more than 0.25. Under WVTC stands no more than 0.25; under VERD, no more than 0.25; under PKHM, no more than 0.25. In the case of DGCC, the enrichment ratio was no more than 0.25.

Regarding DVVL, the enrichment ratio was no more than 0.25.

As to GKQY, the enrichment ratio is no more than 0.25. The value for TGDK was no more than 0.25; that for MKFY was no more than 0.25. Consider KYTK, for which the enrichment ratio was no more than 0.25. The value for AAGF was 0.706; that for IIDG was no more than 0.25; that for MHNE was no more than 0.25. With QKIL, the enrichment ratio is no more than 0.25. Regarding FVVS, the enrichment ratio was no more than 0.25. As for MQPC, the enrichment ratio was no more than 0.25. As for NDGY, the enrichment ratio was no more than 0.25.

DQDN: the enrichment ratio was no more than 0.25. Regarding YPGY, the enrichment ratio is no more than 0.25. Under SFFT stands no more than 0.25; under RRNK, no more than 0.25. For the variant YGRH, the enrichment ratio is no more than 0.25. The value for MWLI was no more than 0.25; that for PYTW was no more than 0.25. The value for PYVA was no more than 0.25; that for DGPE was no more than 0.25.

Regarding VWQW, the enrichment ratio is no more than 0.25.

As for LAAL, the enrichment ratio is no more than 0.25. For AKFY, the enrichment ratio was no more than 0.25. On to MQGW, for which the enrichment ratio was no more than 0.25. Under VDAW stands no more than 0.25; under FDKK, no more than 0.25; under FSLP, no more than 0.25. On to RWKT, for which the enrichment ratio is no more than 0.25.

Turning to AMPL, the enrichment ratio was no more than 0.25. The value for IAPK was 10.1; that for PTAM was no more than 0.25. Take GIPF: the enrichment ratio is no more than 0.25. In the case of QQIQ, the enrichment ratio is no more than 0.25. With VKIA, the enrichment ratio is no more than 0.25. The value for VSDR was no more than 0.25. Under SYHT stands no more than 0.25. FMGK: the enrichment ratio is no more than 0.25. Consider VNYW, for which the enrichment ratio is no more than 0.25. Turning to TCPY, the enrichment ratio was no more than 0.25. Turning to YYLD, the enrichment ratio is no more than 0.25. Under VSNM stands no more than 0.25. As for WLAS, the enrichment ratio was no more than 0.25.

Regarding TMHL, the enrichment ratio stood at 11.6. On to NYFL, for which the enrichment ratio was no more than 0.25. For the variant STNW, the enrichment ratio is no more than 0.25. The value for IKRR was no more than 0.25; that for FKRI was no more than 0.25; that for PQEV was no more than 0.25. Regarding DVFC, the enrichment ratio is no more than 0.25. The value for MDPG was no more than 0.25. For the variant TDEG, the enrichment ratio was no more than 0.25. Turning to YFHH, the enrichment ratio is no more than 0.25. Under FKRL stands no more than 0.25; under KPFI, no more than 0.25.

As to HNIR, the enrichment ratio was no more than 0.25. With REGM, the enrichment ratio is no more than 0.25. As for GFHS, the enrichment ratio was no more than 0.25. In the case of TLKK, the enrichment ratio is no more than 0.25. Under LPVF stands no more than 0.25. In the case of ALVG, the enrichment ratio is 1.71. As for VHAM, the enrichment ratio is no more than 0.25.

With FNRA, the enrichment ratio is no more than 0.25. Under MQWP stands no more than 0.25. The value for GFCP was no more than 0.25.
